Data from the supplement of paper PMC9446081.
Among all 39,000 compounds or so, about 220 (0.56%) showed activity. The list shows a part of the results.

Tested on: Escherichia coli K-12 BW25113
Test: relative growth (OD600 normalised to plate interquartile mean) (fraction); higher = less growth inhibition, active = 0.2 or less
Settings: 50 µM; LB; incubation time: overnight (16-24 h)
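Note: static incubation at 37 °C against the wild-type strain, values averaged over two biological replicates.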

| Compound | relative growth |
| --- | --- |
| C[C@@H]1CN([C@@H](C)CO)C(=O)c2cccc(NC(=O)Nc3ccc(C(F)(F)F)cc3)c2O[C@H]1CN(C)Cc1ccc(Cl)c(Cl)c1 | inactive: 0.916 |
| CC(C)NC(=O)N(C)C[C@H]1OCCCC[C@H](C)Oc2ccc(NC(=O)Nc3ccc(C(F)(F)F)cc3)cc2C(=O)N([C@H](C)CO)C[C@@H]1C | inactive: 1.03 |
| COc1ccccc1C(=O)Nc1ccc2c(c1)C(=O)N(C)[C@@H]1CC[C@H](CC(=O)NCc3ccc(Cl)c(Cl)c3)O[C@H]1CO2 | inactive: 1.02 |
| CC(C)NC(=O)N(C)C[C@@H]1Oc2cc(C#Cc3ccccn3)ccc2S(=O)(=O)N([C@@H](C)CO)C[C@@H]1C | inactive: 0.957 |
| O=C(C[C@H]1CC[C@H]2[C@@H](COC[C@H](O)CN2S(=O)(=O)c2ccccc2)O1)N[C@@H]1CCN(Cc2ccccc2)C1 | inactive: 0.98 |
| COc1ccc(NC(=O)N(C)C[C@H]2OCCCC[C@H](C)Oc3ccc(NC(=O)CCC(F)(F)F)cc3C(=O)N([C@@H](C)CO)C[C@@H]2C)cc1 | inactive: 0.992 |
| C=C[C@@H](COC(=O)OC(C)(C)C)N(Cc1ccc(OC)cc1)S(=O)(=O)c1ccc(Br)cc1 | inactive: 1.01 |
| Cc1ccc(S(=O)(=O)N[C@@H]2C=C[C@H](CC(=O)NCCN3CCCCC3)O[C@@H]2CO)cc1 | inactive: 1.01 |
| O=C(N[C@@H]1CC(=O)N(C2CC2)C1)C1CCC1 | inactive: 0.982 |
| CC(C)N[C@H]1CCS(=O)(=O)C1 | inactive: 0.972 |
| COCCOC(=O)N1C(=O)[C@@]2(c3cc(C#CC4=CCCCC4)ccc31)[C@H](C(=O)N1CCc3cc(OC)c(OC)cc3C1)[C@H]1C(=O)O[C@H](c3ccccc3)[C@H](c3ccccc3)N1[C@@H]2c1ccc(O)cc1 | inactive: 1.03 |
| NCCOc1cccc(Cl)c1 | inactive: 1.01 |
| Cc1ccc(CN)s1 | inactive: 1.02 |
| Nc1nc(=O)c2ncn([C@H]3C[C@H](O)[C@@H](CO)O3)c2[nH]1 | inactive: 0.997 |
| COc1cccc(c1)CN1C[C@]2(CCN(CC2)S(=O)(=O)C)c2c(n(c3cc(ccc23)OC)C)[C@@H]1CO | inactive: 1.04 |
| NCc1ccccc1N1CCC(CO)CC1 | inactive: 0.975 |
| COc1cccc(-n2cc(C(=O)NO)nn2)c1 | inactive: 0.945 |
| COc1ccc(S(=O)(=O)Nc2cccc3c2O[C@H](CN(C)C(=O)Nc2cccc4ccccc24)[C@H](C)CN([C@H](C)CO)C3=O)cc1 | inactive: 0.983 |
| C[C@@H]1CN([C@@H](C)CO)C(=O)c2cc(NC(=O)C3CCCCC3)ccc2O[C@@H]1CN(C)Cc1ccc(Cl)c(Cl)c1 | inactive: 0.985 |
| NCC1OC(OC2C(N)CC(N)C(OC3OC(CO)C(O)C(N)C3O)C2O)C(N)CC1O (stereo unspecified) | active: 0.0445 |
| C[C@H](CO)N1C[C@H](C)[C@@H](CN(C)C(=O)Nc2ccc(C(F)(F)F)cc2)OCCCC[C@H](C)Oc2ccc(NS(=O)(=O)c3ccccc3)cc2C1=O | inactive: 0.984 |

| Compound | relative growth |
| --- | --- |
| CC(C)NC(=O)N(C)C[C@H]1Oc2ccc(NS(=O)(=O)c3cn(C)cn3)cc2C(=O)N([C@H](C)CO)C[C@@H]1C | inactive: 1.01 |
| N[C@H]1CCC[C@@H]1Cc1ccc(F)cc1 | inactive: 1.02 |
| CC(C)Cc1ccc([C@@H](C)C(=O)Nc2ccc(Cl)cc2)cc1 | inactive: 1.01 |
| Cc1cccc(S(=O)(=O)N2C[C@@H](O)COC[C@@H]3O[C@@H](CC(=O)N4CCN(C)CC4)CC[C@H]32)c1 | inactive: 1 |
| C[C@H]1CN([C@@H](C)CO)C(=O)c2cccc(NS(=O)(=O)c3cn(C)cn3)c2O[C@@H]1CN(C)S(=O)(=O)c1cccs1 | inactive: 1.01 |
| COc1ccccc1CNC(=O)C[C@@H]1CC[C@H]2[C@@H](COC[C@H](O)CN2S(=O)(=O)c2ccc(C)cc2)O1 | inactive: 1.01 |
| C[C@@H]1CCCCO[C@H](CN(C)Cc2ccc(C(F)(F)F)cc2)[C@@H](C)CN([C@@H](C)CO)C(=O)c2cc(NC(=O)Nc3ccccc3)ccc2O1 | inactive: 1.02 |
| C[C@H]1CN([C@@H](C)CO)C(=O)c2cccc(NC(=O)Nc3cccc4ccccc34)c2O[C@@H]1CN(C)S(=O)(=O)c1ccccc1 | inactive: 1.03 |
| CO[C@H]1CN(C)C(=O)c2ccc(NC(=O)c3ccccc3)cc2OC[C@H](C)N(C(=O)CN(C)C)C[C@H]1C | inactive: 0.922 |
| CCOC(=O)c1ccc(N)cc1 | inactive: 0.968 |
| C[C@@H]1CN([C@@H](C)CO)C(=O)c2cc(NC(=O)CCN3CCOCC3)ccc2O[C@@H]1CN(C)C(=O)Nc1ccc2c(c1)OCO2 | inactive: 1 |
| COc1ccc([C@@H]([C@H](Cc2ccccc2)OC(C)=O)N2C[C@@H](CC(=O)N(C)C)[C@@H]3[C@H]([C@@H]2Cc2ccccc2)N(C)O[C@H]3c2ccccc2)cc1 | inactive: 1.02 |
| C[C@@H]1CN([C@H](C)CO)C(=O)Cc2cc(NC(=O)CCN3CCOCC3)ccc2O[C@@H]1CN(C)Cc1ccncc1 | inactive: 0.999 |
| C[C@@H]1CN([C@@H](C)CO)C(=O)c2cccc(NC(=O)Nc3ccc(C(F)(F)F)cc3)c2O[C@H]1CN(C)Cc1ccc2c(c1)OCO2 | inactive: 0.744 |
| COc1ccc(CNC(=O)C[C@@H]2C[C@@H]3c4cc(NC(=O)NC5CCCC5)ccc4O[C@@H]3[C@H](CO)O2)cc1 | inactive: 0.983 |
| Cc1ccc(S(=O)(=O)N(C)C[C@H]2Oc3ncc(C#CC4(O)CCCC4)cc3C(=O)N([C@H](C)CO)C[C@H]2C)cc1 | inactive: 0.993 |
| C[C@H](CO)N1C[C@H](C)[C@@H](CN(C)C(=O)Nc2ccc(C(F)(F)F)cc2)Oc2ccc(NC(=O)Nc3ccccc3)cc2C1=O | inactive: 1.02 |
| C[C@H](CO)N1C[C@H](C)[C@@H](CN(C)C(=O)CN(C)C)Oc2cc(-c3cncnc3)ccc2S1(=O)=O | inactive: 0.986 |
| CCNC(=O)[C@@H]1[C@@H](CO)[C@@H]2Cn3c(ccc(-c4cccc(C(=O)N(C)C)c4)c3=O)[C@H]1N2 | inactive: 1.02 |
| C[C@@H]1CN([C@@H](C)CO)C(=O)Cc2cc(NC(=O)CCN3CCOCC3)ccc2O[C@@H]1CN(C)CC1CCCCC1 | inactive: 1.02 |
